Measurements taken from PubChem BioAssay AID1240 (Sanford-Burnham Center for Chemical Genomics, 2008).
The whole screen tested about 50,000 compounds, of which about 800 (1.6%) showed an effect of 50% or more. This is one part of the list.

target: Bcl-2-like protein 10 (Homo sapiens) (UniProt Q9HD36); assay: Phenotype converters, Bcl-B/TR3 peptide binding displacement, primary biochemical FP (AID 1240); conditions: GST-Bcl-B / FITC-TR3 peptide fluorescence polarization; stronger effect = higher value; compound at 3.75 mg/L;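 further: 0% = Bcl-B with tracer peptide and DMSO and 100% = tracer peptide lacking Bcl-B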
UniProt Q9HD36, sequence (Q9HD36 whole entry, looked up): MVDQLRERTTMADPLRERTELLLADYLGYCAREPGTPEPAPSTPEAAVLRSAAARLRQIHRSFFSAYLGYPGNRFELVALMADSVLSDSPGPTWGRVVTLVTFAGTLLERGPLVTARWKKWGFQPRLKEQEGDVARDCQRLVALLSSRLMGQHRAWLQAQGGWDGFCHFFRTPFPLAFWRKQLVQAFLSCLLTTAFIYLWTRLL

Structure (SMILES) | displacement
O=C(CN1C(=O)C2(OCCO2)c2cc(Br)ccc21)c1ccc(Br)cc1 | 4%
O=C(COc1ccc2ccccc2c1)N1CCN(S(=O)(=O)c2ccc(Cl)cc2)CC1 | 10.1%
COc1ccc(CN=Cc2ccc(OC3CSC3)cc2)cc1 | 3.2%
COc1ccc(C(O)c2nc3ccccc3s2)cc1 (centres undefined) | -4.6%
CC(=O)Nc1ccc(S(=O)(=O)N(Cc2ccccc2)C(C)C)cc1 | 130%
O=[N+]([O-])c1ccccc1-c1ccc(/C=N/n2cnnc2)o1 | 8.8%
COc1ccc(N/C(C)=C\C(=O)Nc2ccccc2)cc1 | -4.2%
CCc1nc2ccccc2n1CC(O)COc1ccc(OC)cc1 (centres undefined) | -11.5%
CCN(Cc1ccccc1)S(=O)(=O)c1ccc(NC(C)=O)cc1 | 19.2%
CCOC(=O)C1=C(C)N(CCOC)C(=O)/C1=C\c1ccc2c(c1)OCO2 | 10.5%
COc1nccnc1NS(=O)(=O)c1ccc(NC(=O)c2ccc(S(=O)(=O)N(C)C)cc2)cc1 | -4.8%
O=c1[nH]c2ccc(N=Cc3cn(Cc4ccc(Cl)cc4Cl)c4ccccc34)cc2[nH]1 | 16.9%
CCCCC(C(C)=O)C(=O)Nc1ccc(C)cc1 (centres undefined) | -3.1%
O=C(O)c1cccc([N+](=O)[O-])c1C(=O)Nc1ccc(Cl)cn1 | -3.5%
O=C(O)c1cc(C(=O)O)cc(N2C(=O)c3cccc4c([N+](=O)[O-])ccc(c34)C2=O)c1 | 26.7%
CC1=C(C(=O)Nc2ccc(Br)cc2)C(c2ccc(O)cc2)NC(=S)N1 (centres undefined) | 4.4%
CCn1c(/C=C/c2cc(Br)ccc2O)nc2ccccc2c1=O | 6.3%
Cc1ccc(OCC(=O)O/N=C(\N)c2ccc([N+](=O)[O-])cc2)c(Br)c1 | -0.6%
COc1ccccc1C1C(C(C)=O)=C(O)C(=O)N1CCN(C)C (centres undefined) | 2.7%
COc1ccc2nc(NC(=S)NC(=O)c3ccco3)sc2c1 | -6.4%
COC(=O)C1=C(C)N(C)C(C)=C(C(=O)OC)C1c1cc(OC)ccc1OC | -6.4%
COc1ccc(/C=C2/SC(=O)NC2=O)cc1[N+](=O)[O-] | 2.8%
c1ccc(CCc2nc(-c3cccnc3)no2)cc1 | 6.5%
CCOC(=O)C(CCCOc1ccc(C(C)(C)C)cc1)C(=O)OCC | 5.2%
O=C(CN1C(=O)S/C(=C/c2ccccc2F)C1=O)Nc1ccc(O)cc1 | 8.5%
O=C1C2C(c3ccc([N+](=O)[O-])cc3)OC3(C(=O)c4ccccc4C3=O)C2C(=O)N1c1ccc(Cl)cc1 (centres undefined) | 1.4%
O=[N+]([O-])c1ccc(C=Nc2ccc3c(c2)Cc2cc([N+](=O)[O-])ccc2-3)cc1 | -2.7%

Structure (SMILES) | displacement
COc1ccc(Cc2nnc(NC(=O)Nc3ccc(Cl)c(Cl)c3)s2)cc1 | 8.3%
COc1ccc(CNCCC(c2ccc(OC)cc2)C2CCOC(C)(C)C2)cc1 (centres undefined) | -3.5%
OC(COC1CCCCC1)Cn1c2ccccc2c2ccccc21 (centres undefined) | -9.1%
O=C(c1nn2c(c1Cl)NC(c1cccs1)CC2C(F)(F)F)N(Cc1ccccc1)Cc1ccccc1 (centres undefined) | 3.4%
COC(=O)c1ccc(CSc2nc3sc(C)c(C)c3c(=O)n2-c2ccccc2)cc1 | 9.5%
CC(C)(C)c1ccc(OCCN2CCOCC2)cc1 | 4.5%
CC(C)NC(=O)c1ccc(CN2CCC(Cc3ccccc3)CC2)cc1 | -4.7%
Oc1cccc(/C=N/Nc2nc(N3CCCC3)nc(N3CCCC3)n2)c1 | 5.8%
O=C(COc1cccc2ccccc12)NCCO | 14.5%
COc1ccc(CCNC2=CC(=O)CC(c3ccccc3)C2)cc1OC (centres undefined) | 1.4%
COc1ccc(CC(=O)N2CCC(Cc3ccccc3)CC2)cc1OC | 7.4%
COc1cc2nc(-c3ccc(Oc4ccc([N+](=O)[O-])cc4)cc3)oc(=O)c2cc1OC | 10.6%
COc1ccc(C(=O)Nc2ccccc2)cc1NC(=O)C(c1ccccc1)c1ccccc1 | -1.4%
COc1ccc(Cl)cc1C(=O)NCc1ccc2c(c1)OCO2 | -5.9%
COc1ccc(-c2c(C#N)c(N)c(C#N)c3c2CCCC3)cc1 | 4%
O=C(Nc1ccc2nn(-c3ccc(F)cc3)nc2c1)c1ccc([N+](=O)[O-])cc1 | 15.8%
C/C=C/COC(=O)C1=C(C)NC(=O)NC1c1ccc(Cl)cc1 (centres undefined) | 1.3%
COC(=O)c1ccc(C(=O)OC)c(NC(=O)COc2ccccc2Cl)c1 | 73.8%
O=C(Nc1ccccc1Cl)c1ccc(Br)o1 | -0.6%
O=C(COc1cccc2ccccc12)NCC1CCCO1 (centres undefined) | 10.9%
Cc1ccc(C2C(C#N)=C(N)Oc3c2sc2ccccc32)o1 (centres undefined) | 2.5%
COc1ccccc1NC(=O)C1=C(C)NC(=O)NC1c1cccc(Cl)c1 (centres undefined) | -9.7%
CC(=O)Nc1ccc(S(=O)(=O)Nc2ccccc2C(N)=O)cc1 | -10%
COc1ccc(C(CC(=O)O)c2ccccc2)cc1 (centres undefined) | 3.5%
Cn1nnnc1SCCNS(=O)(=O)c1ccccc1 | -9.6%
O=C(C1CN(S(=O)(=O)c2ccccc2)CCN1S(=O)(=O)c1ccccc1)N1CCCCC1 (centres undefined) | 4.9%
Cc1ccc(/C=N/N=C(c2ccccc2)c2ccccc2)s1 | -3.3%
